# Experimental data published in PubChem BioAssay AID1508642 (National Center for Advancing Translational Sciences (NCATS), 2021).
# The campaign covered roughly 43,000 compounds. About 200 (0.47%) were called active. Inconclusive results (about 12%) are left out. Calls come from the whole dose curve; as a rule, active = well fitted cell-killing curve with a large enough effect; inconclusive = small, poorly fitted or top-dose-only effect, or effect the other way; inactive = flat fitted curve, though single readings scatter. This is one part of the list.
# Assay: Cell viability qHTS assay in S16 Pmp22-F2sN cells; note: nearly all actives have a fitted effect of over 65% in size
# Settings: S16 Pmp22-F2sN Schwann cells (luciferase reporters placed in the Pmp22 gene) viability, CellTiter-Glo, 24 h; series mostly up to 57.5 µM; activity change, negative = cytotoxicity: at the top concentration
# In short: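 CellTiter-Glo counter-screen, qHTS, 1536-well. Cells: S16(c9) Pmp22-F2sN, 500-1,000/well in DMEM + 10% FBS. Cpd 23 nL pin transfer, 24 h, 37C/5% CO2. Read: luminescence, CCD imager.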
# % is set by controls: 0 for no effect and ±100 for the full control effect.
row,SMILES,"activity change, negative = cytotoxicity"
1,COc1cc(OC)c(NC(=O)c2c(N3CCCC3=O)c3cc(C)ccc3n2C)cc1Cl,inactive: 7.04%
2,CC(C)Oc1ccc(CNC(=O)c2ccc3c(c2)nc2n3CCCCC2)cc1,inactive: -4.68%
3,CCOc1ccccc1NC(=O)Cn1ncc2c([nH]c3ccccc32)c1=O,inactive: 0.776%
4,Cc1ccccc1OCC(=O)Nc1nnc(S(=O)(=O)N2CCCC2)s1,inactive: 1.19%
5,CCc1c(C)sc2c1CCN(C(=O)Nc1ccccc1C(=O)OC)C2c1ccc(OC)cc1 (stereo unspecified),inactive: 20%
6,COc1ccc(OC)c(C2Nc3c(C)cc(C)cc3-c3cc(C)nn32)c1 (stereo unspecified),inactive: -2.88%
7,Cc1ccc(NS(=O)(=O)c2ccc3c(c2)CC(=O)N3)cc1Cl,inactive: 2.07%
8,Cc1ccc(-c2cc3ncc(C(=O)c4cc(Cl)c(C)cc4O)cn3n2)cc1,inactive: 12.3%
9,Cc1ccc(Cl)cc1NC(=O)C(Cc1ccccc1)NS(=O)(=O)c1cccc2nsnc12 (stereo unspecified),inactive: 7.71%
10,O=C(NCc1ccc(Cl)cc1)C1=Cc2cc(Br)ccc2OC1,inactive: 2.26%
11,CCOc1ccc(NC(=O)CN2C(=O)C(c3ccc(Cl)cc3)=NC2(C)C)cc1,inactive: 8.41%
12,CCC(=O)N1CCc2cc(Br)cc(S(=O)(=O)N3CCCC(C(=O)Nc4cc(C)ccc4OC)C3)c21 (stereo unspecified),inactive: 10.2%
13,CCn1c(=O)cc(OCC(=O)N(C)c2ccc(OC)cc2)c2ccccc21,inactive: -17%
14,CC(C)c1ccc(C2=CC(c3cccc(Cl)c3)n3c(nc4ccccc43)N2)cc1 (stereo unspecified),inactive: -19.3%
15,Cc1ccc(Cl)cc1N1CCN(C(=O)c2cc3ccc4cccnc4c3[nH]2)CC1,inactive: -10.6%
16,Cc1nc2cccnc2n1-c1cccc(C(=O)N2CCN(c3cccc(Cl)c3)CC2)c1,inactive: -15.5%
17,COc1ccc(-c2nnc(SCC(=O)NCCc3ccc(OC)c(OC)c3)nc2-c2ccc(OC)cc2)cc1,inactive: -4.55%
18,Cc1ccc(C)c(N2CCN(S(=O)(=O)c3cc(-c4cc(C)no4)ccc3C)CC2)c1,inactive: -9.14%
19,CSc1ccc(CCNC(=O)c2cc(C)nc3c2c(C)nn3-c2ccccc2)cc1,inactive: -5.98%
20,CC1=Nc2cc(C(=O)NCc3ccccc3Cl)ccc2Sc2c(C)ccc(C)c21,inactive: 0.212%
21,Cc1cc(C)c(NC(=O)Cn2nc(-c3ccncc3)ccc2=O)c(C)c1,inactive: -26%

row,SMILES,"activity change, negative = cytotoxicity"
1,CCCn1c(=O)n(-c2ccccc2Cl)c(=O)c2sc3ccccc3c21,inactive: 12.8%
2,O=C(CN1C(=O)C(c2ccc(F)cc2)=NC12CCCCCC2)Nc1ccccc1Cl,inactive: 10.3%
3,Cc1nc2c(-c3ccc(F)cc3)c(C)nn2c(C)c1CCC(=O)N1CCN(c2ccccc2)CC1,inactive: -1.46%
4,CCCCn1c(SCC(=O)c2ccccc2)nc2c(sc3ccccc32)c1=O,inactive: -1.19%
5,CCN(C(=O)Cn1nnc2sc3c(c2c1=O)CCC(C(C)(C)C)C3)c1cccc(C)c1 (stereo unspecified),inactive: 0.437%
6,Cc1ccc(-n2nc3ccc(NC(=O)COc4ccccc4C)cc3n2)cc1,inactive: 2.11%
7,CC(=O)c1ccc(N2CCN(C(=O)C3CCCN(S(=O)(=O)c4ccc(Br)s4)C3)CC2)cc1 (stereo unspecified),inactive: -25.5%
8,COc1cc(CCC(=O)NCc2ccc3c(c2)CCN3C(=O)c2ccccc2)cc(OC)c1OC,inactive: -20.7%
9,Cn1c(=O)oc2cc(S(=O)(=O)NCCC(=O)Nc3ccc(F)cc3F)ccc21,inactive: 2.17%
10,CCOC(=O)c1cc2c(=O)n3ccccc3nc2n(CCOC)c1=NC(=O)c1c(-c2ccccc2Cl)noc1C,inactive: 27.1%
11,COc1cccc(-n2c(=O)c3sc4ccccc4c3n(CC(=O)NC3CCCCC3)c2=O)c1,inactive: 3.9%
12,Cc1c(NC(=O)c2ccc(-c3cccc([N+](=O)[O-])c3)o2)cccc1-c1nc2cc(Cl)ccc2o1,inactive: 6.64%
13,CCCCC(=O)NC1CC(=O)N(c2ccc3c(c2)OCCO3)C1 (stereo unspecified),inactive: 2.01%
14,COc1ccc(CNC(=O)Cn2c(=O)nc(-c3ccccc3)c3ccccc32)cc1OC,inactive: 5.75%
15,Cc1cc(OCC(=O)Nc2ncn[nH]2)ccc1Cl,inactive: 3.92%
16,Cc1ccc(S(=O)(=O)N(CC(=O)Nc2ccc3c(c2)OCO3)c2cc(Cl)cc(Cl)c2)cc1,inactive: -9.22%
17,CCN(CC)S(=O)(=O)c1ccc(OC)c(-n2cnnn2)c1,inactive: 14%
18,COc1ccccc1C(=O)Nc1cccc(C(=O)OCc2cc(=O)n3cc(C)sc3n2)c1,inactive: -2.77%
19,CC1=C(c2ccc(C)c(C)c2)S(=O)(=O)NC1=NCc1ccccc1Cl,inactive: 1.52%
20,Cc1cc(C)c(NC(=O)c2sc3nc(C)cc(C)c3c2NC(=O)c2ccccc2)c(C)c1,inactive: 0.0827%
21,CCOc1ccc(CCNC(=O)c2cn(C)c3ccc(S(=O)(=O)N4CCCCC4)cc3c2=O)cc1OCC,inactive: 5.67%

row,SMILES,"activity change, negative = cytotoxicity"
1,COc1ccc(-c2nc(C)c(CCNS(=O)(=O)c3cc(Cl)ccc3Cl)s2)cc1,inactive: -5.9%
2,CCOC(=O)c1sc2ncn(CC(=O)Nc3ccc(OCC)cc3)c(=O)c2c1C,inactive: -3.48%
3,CCC(=O)N1c2ccccc2CC1C(=O)NCCc1ccc(OC)c(OC)c1 (stereo unspecified),inactive: -10.4%
4,Cc1c(C(=O)Nc2cccc(C(F)(F)F)c2)oc2ccc3c(c12)C(=O)CC(C)(C)O3,inactive: 28.6%
5,CCc1nc2nc(C)c(NS(=O)(=O)c3ccc(C(C)(C)C)cc3)c(=O)n2[nH]1,inactive: 2.16%
6,O=C(CCn1cnc2ccccc2c1=O)NCc1ccccc1Cl,inactive: -0.0827%
7,O=C(CNC(=O)c1ccc(F)cc1)OCc1cc(=O)n2nc(C3CC3)sc2n1,inactive: 12.3%
8,COc1cccc(CNC(=O)c2ccc3c(c2)c(C)c(C)n3Cc2ccccc2)c1,inactive: 9.05%
9,COc1ccc(CNC(=O)c2cc3cc4cc(OC)ccc4nc3o2)cc1,inactive: -5.55%
10,Cc1nnc(N2CCC(C(=O)NC3CCCCC3)CC2)c2nn(-c3ccccc3)c(C)c12,inactive: 4.71%
11,CCOc1ccccc1N(CC)C(=O)Cn1ncc2c([nH]c3ccccc32)c1=O,inactive: 1.4%
12,COc1ccc(OC)c(NS(=O)(=O)c2ccc3c(c2)C(C)(C)C(=O)N3C)c1,inactive: -2.66%
13,Cc1ccc(C)c(NC(=O)N2CCN(C(=O)c3nsc4ccccc34)CC2)c1,inactive: -3.62%
14,COc1cc(Cl)c(C)cc1NC(=O)C1CCN(c2nc3ccccc3n3cccc23)CC1,inactive: -5.99%
15,O=C(c1ccccc1)N1CCN(CCc2ccncc2)CC1,inactive: 1.81%
16,Clc1cccc(-c2ccc(CNCCSc3nnnn3-c3ccccc3)o2)c1,inactive: -3.33%
17,O=C(Nc1cc(-c2nc3cc(Cl)ccc3o2)ccc1Cl)c1ccco1,inactive: 1.17%
18,CC1CCCN(C(=O)CSc2c3c(nc4cc(Cl)ccc24)CCCC3)C1 (stereo unspecified),inactive: 4.73%
19,CCc1ccc(NC(=O)CSc2nc(=O)n(Cc3ccccn3)c3c2CCC3)cc1,inactive: 7.06%
